According to the supplement of paper PMC4967469:
IC50 is the fitted dose that halves viability relative to control wells, and lower means more sensitive; a fit beyond the top or the lowest dose is shown as a bound at that dose. The AUC spans the tested range (256-fold, ending at the top dose) of the same fit; the more sensitive the line, the further below 1. For part of these data: The top dose, if marked as inferred, was calculated from the reported fits. For part of these data: An entry number marks a drug with two screens in the source, which often give different values.

What was measured:
Assay in all cases: Viability of human cancer cell lines after 72 h of drug (GDSC screen)
OSI-930 = compound: O=C(Nc1ccc(OC(F)(F)F)cc1)c1sccc1NCc1ccnc2ccccc12 [OSI-930]; details: top dose 10.24 µM
Description: (§1)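 Human cancer cell lines in 384-well plates, medium with 10% serum, drug for 72 h over a 256-fold dose range (nine 2-fold or five 4-fold steps up to the top dose). Adherent lines were fixed and stained with the nucleic acid dye Syto60, suspension lines read with resazurin; signal relative to control wells, capped at 0 and 100%. One two-parameter sigmoid per drug and line, fitted in a mixed model over all curves with the slope shared within a line.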

HG-5-88-01 = compound: COc1cc(N2CCC(C(N)=O)CC2)ccc1Nc1nc(N)c(Cl)c(Nc2ccccc2S(=O)(=O)C(C)C)n1 [HG-5-88-01]; details: top dose 10 µM; top dose inferred
Description: as §1

Bleomycin = compound: Cc1c(N)nc([C@H](CC(N)=O)NC[C@H](N)C(N)=O)nc1C(=O)N[C@H](C(=O)N[C@H](C)[C@@H](O)[C@H](C)C(=O)N[C@H](C(=O)NCCc1nc(-c2nc(C(=O)NCCC[S+](C)C)cs2)cs1)[C@@H](C)O)[C@@H](OC1OC(CO)C(O)C(O)C1OC1OC(CO)C(O)C(OC(N)=O)C1O)c1cnc[nH]1 [Bleomycin]
Description: as §1

VNLG/124 = compound: CCCC(=O)OCc1ccc(OC(=O)/C=C(C)/C=C/C=C(C)/C=C/C2=C(C)CCCC2(C)C)cc1 [VNLG/124]; details: top dose 5.12 µM; top dose inferred
Description: as §1

BX-912 = compound: O=C(Nc1cccc(Nc2ncc(Br)c(NCCc3cnc[nH]3)n2)c1)N1CCCC1 [BX-912]; details: top dose 10.24 µM; top dose inferred
Description: as §1

NSC-87877 = compound: O=S(=O)(O)c1ccc2cc(N=Nc3cc(S(=O)(=O)O)c4cccnc4c3O)ccc2c1 [NSC-87877]; details: top dose 16 µM; top dose inferred
Description: as §1

LAQ824 = compound: O=C(/C=C/c1ccc(CN(CCO)CCc2c[nH]c3ccccc23)cc1)NO [LAQ824]; details: top dose 1.024 µM; top dose inferred
Description: as §1

Masitinib = compound: Cc1ccc(NC(=O)c2ccc(CN3CCN(C)CC3)cc2)cc1Nc1nc(-c2cccnc2)cs1 [Masitinib]; details: top dose 20 µM
Description: as §1

Tamoxifen = compound: CC/C(=C(\c1ccccc1)c1ccc(OCCN(C)C)cc1)c1ccccc1 [Tamoxifen]; details: top dose 5 µM
Description: as §1

Elesclomol = compound: CN(NC(=O)CC(=O)NN(C)C(=S)c1ccccc1)C(=S)c1ccccc1 [Elesclomol]; details: top dose 0.2 µM; top dose inferred
Description: as §1

[1] = top dose 50 µM, screen: GDSC drug entry 1378, top dose inferred
[2] = top dose 64 µM, screen: GDSC drug entry 190

| Cell Line | AUC (OSI-930) | IC50 (OSI-930) | AUC (HG-5-88-01) | IC50 (HG-5-88-01) | AUC (Bleomycin; [1]) | IC50 (Bleomycin; [1]) | AUC (Bleomycin; [2]) | IC50 (Bleomycin; [2]) | AUC (VNLG/124) | IC50 (VNLG/124) | AUC (BX-912) | IC50 (BX-912) | AUC (NSC-87877) | IC50 (NSC-87877) | AUC (LAQ824) | IC50 (LAQ824) | AUC (Masitinib) | IC50 (Masitinib) | AUC (Tamoxifen) | IC50 (Tamoxifen) | AUC (Elesclomol) | IC50 (Elesclomol) |
| --- | --- | --- | --- | --- | --- | --- | --- | --- | --- | --- | --- | --- | --- | --- | --- | --- | --- | --- | --- | --- | --- | --- |
| NB(TU)1-10 (neuroblastoma, adherent) | 0.982 | > 10.2 µM | 0.993 | > 10 µM | 0.973 | > 50 µM | 0.816 | 29.7 µM | 0.973 | > 5.12 µM | 0.989 | > 10.2 µM | 0.981 | > 16 µM | 0.325 | 0.0225 µM | 0.961 | > 20 µM | 0.993 | > 5 µM | 0.985 | > 0.2 µM |
| SK-PN-DW (Ewing sarcoma, adherent) | 0.966 | > 10.2 µM | 0.876 | > 10 µM | 0.785 | 22.3 µM | 0.283 | 0.944 µM | 0.977 | > 5.12 µM | 0.714 | 2.66 µM | 0.944 | > 16 µM | 0.455 | 0.048 µM | 0.861 | 17.9 µM | 0.938 | > 5 µM | 0.75 | 0.0677 µM |
| SK-MEL-3 (melanoma, adherent) | 0.96 | > 10.2 µM | 0.893 | > 10 µM | 0.671 | 10.2 µM | 0.682 | 14.1 µM | 0.983 | > 5.12 µM | 0.926 | > 10.2 µM | 0.919 | > 16 µM | 0.488 | 0.0591 µM | 0.83 | 15.4 µM | 0.982 | > 5 µM | 0.937 | > 0.2 µM |
| AMO-1 (haematopoietic neoplasm, suspension) | 0.975 | > 10.2 µM | 0.799 | 4.02 µM | 0.975 | > 50 µM | 0.886 | 53.5 µM | 0.988 | > 5.12 µM | 0.85 | 6.16 µM | 0.991 | > 16 µM | 0.292 | 0.0183 µM | 0.838 | 10.9 µM | 0.978 | > 5 µM | 0.869 | 0.142 µM |
| COR-L23 (large cell lung carcinoma, adherent) | 0.902 | > 10.2 µM | 0.913 | > 10 µM | 0.463 | 2.48 µM | 0.091 | < 0.25 µM | 0.988 | > 5.12 µM | 0.891 | > 10.2 µM | 0.961 | > 16 µM | 0.358 | 0.0262 µM | 0.876 | 18.9 µM | 0.981 | > 5 µM | 0.957 | > 0.2 µM |
| NCI-H747 (large intestine, adherent) | 0.903 | > 10.2 µM | 0.85 | > 10 µM | 0.622 | 7.31 µM | 0.33 | 1.2 µM | 0.94 | > 5.12 µM | 0.791 | 5.75 µM | 0.979 | > 16 µM | 0.439 | 0.0421 µM | 0.904 | > 20 µM | 0.975 | > 5 µM | 0.726 | 0.0639 µM |
| LAN-6 (neuroblastoma, adherent) | 0.985 | > 10.2 µM | 0.889 | > 10 µM | 0.889 | > 50 µM | 0.686 | 14.7 µM | 0.969 | > 5.12 µM | 0.917 | > 10.2 µM | 0.982 | > 16 µM | 0.761 | 0.427 µM | 0.864 | > 20 µM | 0.981 | > 5 µM | 0.668 | 0.0404 µM |
| NB5 (neuroblastoma, adherent) | 0.966 | > 10.2 µM | 0.893 | > 10 µM | 0.465 | 2.5 µM | 0.585 | 6.84 µM | 0.987 | > 5.12 µM | 0.9 | > 10.2 µM | 0.978 | > 16 µM | 0.558 | 0.0925 µM | 0.909 | > 20 µM | 0.963 | > 5 µM | 0.608 | 0.0249 µM |
| HCC1419 (breast, adherent) | 0.943 | > 10.2 µM | 0.98 | > 10 µM | 0.974 | > 50 µM | 0.902 | > 64 µM | 0.977 | > 5.12 µM | 0.98 | > 10.2 µM | 0.982 | > 16 µM | 0.422 | 0.0358 µM | 0.838 | > 20 µM | 0.98 | > 5 µM | 0.568 | 0.0208 µM |
| IST-SL2 (small cell lung carcinoma, suspension) | 0.957 | > 10.2 µM | 0.987 | > 10 µM | 0.945 | > 50 µM | 0.052 | < 0.25 µM | 0.989 | > 5.12 µM | 0.689 | 2.15 µM | 0.961 | > 16 µM | 0.449 | 0.0465 µM | 0.801 | 9.69 µM | 0.977 | > 5 µM | 0.833 | 0.127 µM |
| GRANTA-519 (B-cell lymphoma, suspension) | 0.973 | > 10.2 µM | 0.989 | > 10 µM | 0.826 | 26.2 µM | 0.584 | 6.63 µM | 0.991 | > 5.12 µM | 0.859 | 7.18 µM | 0.988 | > 16 µM | 0.562 | 0.093 µM | 0.876 | 16.4 µM | 0.989 | > 5 µM | 0.928 | > 0.2 µM |
| LB771-HNC (head and neck, adherent) | 0.968 | > 10.2 µM | 0.793 | 5.9 µM | 0.846 | > 50 µM | 0.837 | 59.3 µM | 0.981 | > 5.12 µM | 0.923 | > 10.2 µM | 0.982 | > 16 µM | 0.62 | 0.149 µM | 0.939 | > 20 µM | 0.972 | > 5 µM | 0.809 | 0.138 µM |
